Source: patent US20220411514A1, “ANTI-GAL3 ANTIBODIES AND METHODS OF USE FOR INSULIN RESISTANCE” (TrueBinding, Inc., priority 2021, published 2022)
Changes are numbered by the printed parent chain. In names and notes the source's numbering stands. Values belong to the molecule of their own block, whether it stands above or below them.

Molecular target: T1, Human Gal3 peptides (Homo sapiens, UniProt P17931)
T1 construct: purchased LifeTein custom order
Experiment: Gal3 peptide binding ELISA (Example 8)
Conditions: antibody 5 μg/mL
Experimental: Gal3 peptide binding activity of additional exemplary anti-Gal3 antibodies was assessed with the same peptides as described in FIG. 18 (SEQ ID NOs: 3-26). Human Gal3 peptides (LifeTein, custom order) and human Gal3 proteins (R&D Systems, 8259-GA; TrueBinding, QCB200349) were diluted in PBS (Corning, 21-030-CM) to concentrations of at least 100 μg/mL (peptides) or 1 μg/mL (proteins), and added to the wells of several 96-well ELISA plates (Thermo Fisher, 44-2404-21). After incubating the plates at 4° C. overnight, the plates were washed three times with PBST (PBS with 0.05% Tween 20 [VWR, 0777]). The plates were then blocked for an hour with 2% BSA (EMD Millipore, 126609) in PBST at room temperature with gentle rocking. Thereafter, the 2% BSA in PBST was discarded and Gal3-binding antibodies (reformatted hIgG4 [S228P]) were diluted in 2% BSA in PBST to concentrations of 5 μg/mL and added to the wells. The plates were incubated for an hour at room temperature with gentle rocking and then washed three times with PBST. Afterwards, Peroxidase AffiniPure F(ab′)2 Fragment Goat Anti-Human IgG (H+L) polyclonal antibody (Jackson ImmunoResearch, 109-036-003), was diluted in 2% BSA in PBST (1:4000) and added to the wells. The plates were incubated for 1 hour at room temperature with gentle rocking and then washed three times with PBST. TMB substrate (Thermo Scientific, 34029) was then added to each well. The reaction was stopped with 1M HCl (JT Baker, 5620-02) and read using a plate reader (Molecular Devices) at absorbance of 450 nm.

B4: 9H2.2H10: anti-Gal3 antibody (antibody)
heavy: QVQLQQPGAELVGPGSSVKLSCKASGYTFTNYWIHWVKQRPLQGLEWIGNIDPSDSETHYNQKFKDKATLTVDKSSSTAYMQLSSLTSEDSAVYYCARHGYYDYWGQGTTLTVSSASTKGPSVFPLAPCSRSTSESTAALGCLVKDYFPEPVTVSWNSGALTSGVHTFPAVLQSSGLYSLSSVVTVPSSSLGTKTYTCNVDHKPSNTKVDKRV[in this place human IgG4 Fc with S228P (EU numbers)]
light: DIVMTQSHKFMSTSVGDRVSITCKASQDVSTAVAWYQQKPGQSPKLLIYWASTRHTGVPDRFTGSGSGTDYTLTISSVQAEDLALYYCQQHYTTPLTFGAGTKLELKRTVAAPSVFIFPPSDEQLKSGTASVVCLLNNFYPREAKVQWKVDNALQSGNSQESVTEQDSKDSTYSLSSTLTLSKADYEKHKVYACEVTHQGLSSPVTKSFNRGEC
modifications: 9H2.2H10 heavy chain peptide sequence; 9H2.2H10 light chain peptide sequence
notes: anti-Gal3 antibody
binding to Gal3 peptide 7 (SEQ ID NO: 9): bound

B5: 847.14H4: anti-Gal3 antibody (antibody)
heavy: QIQLVQSGPELTKPGETVKISCKASGYTFTDYGMNWVRQAPGETLKWMGWINTYTGEPTYADDFKGRFAFSLESSASTAYLQINNLKNEDVATYFCARYPMDYWGQGTSVTVSSASTKGPSVFPLAPCSRSTSESTAALGCLVKDYFPEPVTVSWNSGALTSGVHTFPAVLQSSGLYSLSSVVTVPSSSLGTKTYTCNVDHKPSNTKVDKRV[in this place human IgG4 Fc with S228P (EU numbers)]
light: QAVVTQESALTTSPGETVTLTCRSSTGAVTTSNYANWVQEKPDHLFTGLIGGTNNRAPGVPARFSGSLIGDKAALTITGAQTEDEAIYFCALWYSNHLVFGGGTKLTVLRTVAAPSVFIFPPSDEQLKSGTASVVCLLNNFYPREAKVQWKVDNALQSGNSQESVTEQDSKDSTYSLSSTLTLSKADYEKHKVYACEVTHQGLSSPVTKSFNRGEC
modifications: 847.14H4 heavy chain peptide sequence; F847C.4B10/847.14H4 light chain peptide sequence
notes: anti-Gal3 antibody
binding to Gal3 peptide 7 (SEQ ID NO: 9): bound

B6: F846C.1B2: anti-Gal3 antibody (antibody)
heavy: QIQLVQSGPELKKPGETVKISCKASGYTFTNYGMNWVKQAPGKGLKWMGWINTYTGEPSYADDFKGRFAFSLETSASTAYLQINNLKNEDMATYFCARWGGYAGDYYAMDFWGQGTSVTVSSASTKGPSVFPLAPCSRSTSESTAALGCLVKDYFPEPVTVSWNSGALTSGVHTFPAVLQSSGLYSLSSVVTVPSSSLGTKTYTCNVDHKPSNTKVDKRV[in this place human IgG4 Fc with S228P (EU numbers)]
light: NIWLTQSPSSLAVSAGEMVTMTCKSSQSVLYSSNQKNYLAWYQQKPGQSPKLLIYWASTRESGVPDRFTGSGSGTDFSLTISSVQAEDLAVYYCHQYLSSLTFGAGTKLELKRTVAAPSVFIFPPSDEQLKSGTASVVCLLNNFYPREAKVQWKVDNALQSGNSQESVTEQDSKDSTYSLSSTLTLSKADYEKHKVYACEVTHQGLSSPVTKSFNRGEC
modifications: F846C.1B2 heavy chain peptide sequence; F846C.1B2 light chain peptide sequence
notes: anti-Gal3 antibody
binding to Gal3 peptide 5 (SEQ ID NO: 7): bound
binding to Gal3 peptide 6 (SEQ ID NO: 8): bound
binding to Gal3 peptide 7 (SEQ ID NO: 9): bound

B7: F846C.1F5: anti-Gal3 antibody (antibody)
heavy: B6 heavy with A103D, F111Y
light: B6 light with W3M, L4M, M18K, T22S, S78T, A86P
modifications: F846C.1F5 heavy chain peptide sequence; F846C.1F5/F846C.2H3 light chain peptide sequence
notes: anti-Gal3 antibody
binding to Gal3 peptide 6 (SEQ ID NO: 8): bound
binding to Gal3 peptide 17 (SEQ ID NO: 19): bound

B8: F846C.1H12: anti-Gal3 antibody (antibody)
heavy: B6 heavy with Y32F, M91I, F111Y
light: B6 light with W3M, L4M, E17Q, M18K, T22S, N34S, T69S, S78T, A86P
modifications: F846C.1H12 heavy chain peptide sequence; F846C.1H12 light chain peptide sequence
notes: anti-Gal3 antibody
binding to Gal3 peptide 5 (SEQ ID NO: 7): bound
binding to Gal3 peptide 6 (SEQ ID NO: 8): bound
binding to Gal3 peptide 17 (SEQ ID NO: 19): bound

B9: F846C.2H3: anti-Gal3 antibody (antibody)
heavy: B6 heavy with A103D, F111Y
light: B6 light with W3M, L4M, M18K, T22S, S78T, A86P
modifications: F846C.2H3 heavy chain peptide sequence; F846C.1F5/F846C.2H3 light chain peptide sequence
notes: anti-Gal3 antibody
binding to Gal3 peptide 6 (SEQ ID NO: 8): bound
binding to Gal3 peptide 17 (SEQ ID NO: 19): bound

The next lines start with the values.

binding to Gal3 peptide 2 (SEQ ID NO: 4): bound
binding to Gal3 peptide 3 (SEQ ID NO: 5): bound
B1: F849C.8D10: anti-Gal3 antibody (antibody)
heavy: QVQLQQTGAELVKPGASVKLSCKASGYTFTSYWINWVKQRPGQGLEWIGNIYPGSSSIYYSEKFKSKATLTVDTSSSTAYMQLSSLTSDDSAVYYCARWGYWGQGTTLTVSSASTKGPSVFPLAPCSRSTSESTAALGCLVKDYFPEPVTVSWNSGALTSGVHTFPAVLQSSGLYSLSSVVTVPSSSLGTKTYTCNVDHKPSNTKVDKRV[in this place human IgG4 Fc with S228P (EU numbers)]
light: DVLMTQTPLSLPVSLGDQASISCRSSQDIVHSSGNTYLEWYLQKPGQSLKLLIYKVSNRFSGVPDRFSASGSGTDFTLKISRVEAEDLGVYYCFQGSHVPPTFGSGTKLEIKRTVAAPSVFIFPPSDEQLKSGTASVVCLLNNFYPREAKVQWKVDNALQSGNSQESVTEQDSKDSTYSLSSTLTLSKADYEKHKVYACEVTHQGLSSPVTKSFNRGEC
modifications: F849C.8D10 heavy chain peptide sequence; F849C.8D10 light chain peptide sequence
notes: anti-Gal3 antibody

binding to Gal3 peptide 17 (SEQ ID NO: 19): bound
B2: F847C.11B1: anti-Gal3 antibody (antibody)
heavy: EVQLQQSGPELVKPGASVKISCKASGNTFTDHNMHWVKQSHGKSLEWIGYIYPYNGGTGYNQKFKSKATLTVDNSSSTVYMELRSLTSEDSAVYYCARGEYDYLAWFAYWGQGTLVTVSAASTKGPSVFPLAPCSRSTSESTAALGCLVKDYFPEPVTVSWNSGALTSGVHTFPAVLQSSGLYSLSSVVTVPSSSLGTKTYTCNVDHKPSNTKVDKRV[in this place human IgG4 Fc with S228P (EU numbers)]
light: EIVLTQSPASLSVTTGEKVTIRCITSIDIDDDMNWYQQKPGEPPKLLISEGNTLRPGVPSRFSSSGYGTDFVFTIENTLSEDVADYYCLQSDNKPLTFGAGTKLELKRTVAAPSVFIFPPSDEQLKSGTASVVCLLNNFYPREAKVQWKVDNALQSGNSQESVTEQDSKDSTYSLSSTLTLSKADYEKHKVYACEVTHQGLSSPVTKSFNRGEC
modifications: F847C.11B1 heavy chain peptide sequence; F847C.11B1 light chain peptide sequence
notes: anti-Gal3 antibody

binding to Gal3 peptide 2 (SEQ ID NO: 4): bound
binding to Gal3 peptide 17 (SEQ ID NO: 19): bound
B3: F849C.8H3: anti-Gal3 antibody (antibody)
heavy: QVTLKESGPGILQPSQTLSLTCSFSGFSLSTFGMGVGWIRQPSGKGLEWLAHIWWDDDKHYNPALKSRLTISKDTSKNQVFLRIANVDTADNATYYCARIDYGDYVGFAYWGQGTLVTVSAASTKGPSVFPLAPCSRSTSESTAALGCLVKDYFPEPVTVSWNSGALTSGVHTFPAVLQSSGLYSLSSVVTVPSSSLGTKTYTCNVDHKPSNTKVDKRV[in this place human IgG4 Fc with S228P (EU numbers)]
light: DIGMRQAAFSNPVTLGTSASISCRSSKSLLYSNGITYLYWFLQKPGQSPQLLIYQMSNLASGVPDRFSSSGSGTDFTLRISRVEADDVGVYYCAQNLELPWTFGGGTKLEIKRTVAAPSVFIFPPSDEQLKSGTASVVCLLNNFYPREAKVQWKVDNALQSGNSQESVTEQDSKDSTYSLSSTLTLSKADYEKHKVYACEVTHQGLSSPVTKSFNRGEC
modifications: F849C.8H3 heavy chain peptide sequence; F849C.8H3 light chain peptide sequence
notes: anti-Gal3 antibody
